From PubChem BioAssay AID686978 (National Center for Advancing Translational Sciences (NCATS), 2013)
Where “and” joins values, the source holds several entries; their conditions need not be identical. Identical values can stand only once. About 64,000 (15%) of roughly 420,000 compounds were called active. Inconclusive results, whose numbers are uncertain, are shown with a selection of clear calls. The call rests on the fitted dose curve; in most records, active means well fitted inhibition curve with a large enough effect; inconclusive means small, poorly fitted or top-dose-only effect; inactive means flat fitted curve, though single readings scatter. A potency beside an inconclusive call is a rough fit, not a confirmed value.

Test: qHTS for Inhibitors of human tyrosyl-DNA phosphodiesterase 1 (TDP1): qHTS in cells in absence of CPT; further: nearly all actives have a fitted effect of over 55% in size
Details: DT40 Tdp1-/- hTDP1 cells, no CPT, ATP luminescence, 48 h; activity change, negative = growth inhibition: at 46.2 µM (top of the series) unless noted
Procedure, shortened: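 Cells were dispensed at 400 per well, compounds added by pin tool, plates incubated ≥48 hr at 37 °C, then CellTiter-Glo added for 30 min at room temperature before luminescence reading. Line: DT40 Tdp1-/- complemented with hTDP1; camptothecin omitted.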
On the % scale 0 is the no-effect control and ±100 the full control effect; potency means the concentration at half of the fitted maximal effect; tags describe the fitted curve by direction and shape.

| SMILES | Potency | activity change, negative = growth inhibition |
| --- | --- | --- |
| COc1cc(C(C(=O)NC2CCCCC2)N(C(=O)Cc2c[nH]c3ccccc23)c2ccc(C)cc2)cc(OC)c1OC (centres undefined) | active: 25.9 µM |  |
| CCCCN(CC)C(=O)C1CCCN(c2ncnc3c2nc2n3CCCCC2)C1 (centres undefined) | active: 20.6 µM |  |
| O=C(NC(Cc1ccccc1)C(=O)N1CCN(S(=O)(=O)c2ccccc2F)CC1)c1ccccc1 (centres undefined) | inconclusive: 29.1 µM [inhibitor, single point] |  |
| Cc1ccccc1NC(=O)CSc1ccsc1[N+](=O)[O-] | inactive |  |
| O=C(CSc1nnc2scc(-c3ccccc3)n12)Nc1ccc(Cl)cc1 | inconclusive: 20.6 µM [inhibitor, partial curve, poor fit] |  |
| CCOc1cc(C(=O)NCCOC)ccc1OC | inconclusive: 2.91 µM [inhibitor, full curve] |  |
| O=C(Nc1cccc(C(F)(F)F)c1)Nc1cccs1 | active: 20.6 µM |  |
| Cc1ccc(O)c(C(=O)c2cnc3c(c2)CN(C)C(=O)N3)c1 | inconclusive: 22.4 µM [inhibitor, single point] |  |
| O=C(CCc1ccccc1)NNC(=O)c1cc(Cl)ccc1O | active: 23.1 µM |  |
| Cc1ccccc1C(=O)N1CCC(N2CCN(Cc3ccc(F)cc3)C(=O)C2=O)CC1 | inactive |  |
| C[C@]12CCC(=O)C=C1CC[C@@H]1[C@@H]2[C@@H](O)C[C@]2(C=O)[C@@H](C(=O)CO)CC[C@@H]12 | inactive |  |
| COc1ccc(CN2CCCC(CO)(Cc3ccc(F)cc3)C2)c(OC)c1OC (centres undefined) | inconclusive: 0.0058 µM [inhibitor, full curve, poor fit] |  |
| CCc1cccc(C)c1NC(=O)CCCN1C(=O)C(c2ccccc2)Oc2cccnc21 (centres undefined) | inconclusive: 1.46 µM [inhibitor, full curve] |  |
| CC1CCN(c2ccc(-c3nc(-c4ccccc4)no3)cc2[N+](=O)[O-])CC1 | inconclusive: 29.1 µM [inhibitor, single point] |  |
| NS(=O)(=O)c1ccc(CCNC(=O)Cc2cccs2)cc1 | inactive |  |
| C/C(=N\Nc1nc(Cl)c(Cl)cc1Cl)c1ccc(S(=O)(=O)NCc2ccco2)cc1 | active: 20.6 µM |  |
| CCOC(=O)c1c(C)[nH]c(C)c1S(=O)(=O)N(C)CC(=O)NCc1cccc(Br)c1 | inactive and inconclusive: 2.91 µM [inhibitor, full curve] |  |
| CC(=O)c1ccc(S(=O)(=O)NCCC(=O)NC2CCN(Cc3ccccc3)CC2)cc1 | inconclusive: 29.1 µM [inhibitor, single point] |  |
| COc1ccc(NC(=O)C2CCN(C(=O)c3ccc(OC)cc3)CC2)cc1 | inconclusive: 20.6 µM [inhibitor, single point] |  |
| CC(=NCc1cccc(Cl)c1)c1nc(-c2ccco2)oc1O | inconclusive: 29.1 µM [inhibitor, single point] |  |
| CCC1NC(C(=O)O)Cc2c1[nH]c1ccccc21 (centres undefined) | active: 9.2 µM |  |
| O=C(Cn1c(=O)c2ccccc2n2nncc12)Nc1cccc(F)c1 |  | inconclusive: -33.9% [inhibitor] |

| SMILES | Potency | activity change, negative = growth inhibition |
| --- | --- | --- |
| CCn1nc(C)c(CNC(=O)c2cc(COc3ccc(C)nc3)on2)c1C | inconclusive: 23.1 µM [inhibitor, single point] |  |
| O=C(CCc1c[nH]c2ccccc12)N1CCN(S(=O)(=O)c2ccccc2)CC1 | inconclusive: 32.6 µM [inhibitor, single point] |  |
| COc1ccc(C(=O)C2CCCN(Cc3ccc(NC(C)=O)cc3)C2)cc1OC (centres undefined) |  | inconclusive: -33.1% [inhibitor] |
| Cc1c(NC(=O)c2cc(-n3cnnc3)ccc2Cl)cccc1-c1nc2ccccc2s1 | inconclusive: 20.6 µM [inhibitor, single point] |  |
| O=C(NC12CC3CC(CC(C3)C1)C2)c1cncc(Br)c1 | inconclusive: 16.4 µM [inhibitor, partial curve] |  |
| COc1ccc(S(=O)(=O)N2CCCCC2)cc1NC(=O)Cn1cnc2c1c(=O)n(C)c(=O)n2C | inactive |  |
| COCCn1c(=NC(=O)CSCC(=O)NC2CCCCC2)sc2cc(OC)ccc21 | active: 20.6 µM |  |
| Cc1nn(-c2nc3ccccc3[nH]2)c(N)c1-c1ccc(Cl)cc1 | active: 16.4 µM |  |
| Nc1ncnc2c1ncn2C1OC(COP(=O)(O)O)C(O)C1O (centres undefined) | inconclusive: 29.1 µM [inhibitor, single point] |  |
| Cc1ccccc1Cn1cnc2nc3c(cc2c1=O)CC(C)CC3 (centres undefined) | active: 2.59 µM |  |
| CN(C)c1ccc(NC(=S)Nc2ccc3c(c2)c(=O)n(C)n3-c2ccc(C(C)(C)C)cc2)cc1 | active: 11.6 µM |  |
| Cn1c(=O)c2c([nH]c(=S)n2Cc2ccc(Cl)cc2)n(C)c1=O | inactive |  |
| COC(=O)N1C(=O)[C@](c2ccc(Cl)cc2)(C(C)C)N1C(=O)OC | active: 23.1 µM |  |
| Cc1ccc(Cn2cnc3sc4c(c3c2=O)CCC4)c(C)c1 | inconclusive: 20.6 µM [inhibitor, single point] |  |
| COc1cccc(-c2nc3n(n2)CCc2ccccc2-3)c1 | inconclusive: 29.1 µM [inhibitor, single point] |  |
| Cc1cc(C)n(-c2ccc(C(=O)Nc3ccc4c(c3)OCCO4)cc2)n1 | inconclusive: 16.4 µM [inhibitor, single point] |  |
| CCCCn1c(N)c(N(CC)C(=O)CCNC(=O)NC23CC4CC(CC(C4)C2)C3)c(=O)[nH]c1=O | inactive |  |
| CCN1CC=C2C(C1)C(c1ccc(Cl)s1)C(C#N)=C(N)C2(C#N)C#N (centres undefined) | inconclusive: 29.1 µM [inhibitor, single point] |  |
| Cc1ccc(Cl)cc1NC(=O)CCn1c(=O)c2cccn2c2cccnc21 | inconclusive: 13 µM [inhibitor, partial curve] |  |
| COc1ccc(OC)c(C(=O)c2coc3cc(Br)c(O)c(Br)c23)c1 | inconclusive: 29.1 µM [inhibitor, single point] |  |
| CC(=O)N1N=C(c2ccccc2)CC1c1cn(Cc2ccccc2)c2ccccc12 (centres undefined) | inconclusive: 29.1 µM [inhibitor, single point] |  |
| CCc1c(C)c2ccccc2[nH]c1=O | inconclusive: 35.5 µM [inhibitor, single point] |  |
